These results are taken from the supplement of paper PMC3334620.

Over roughly 33,000 sequences, “E-score (-0.5 to 0.5)” has its median near -0.017; the highest 2% begin near 0.3. The list shows a part of the results.

For this test, the target named is T1, Sut1 (UniProt P53032).
T1 sequence: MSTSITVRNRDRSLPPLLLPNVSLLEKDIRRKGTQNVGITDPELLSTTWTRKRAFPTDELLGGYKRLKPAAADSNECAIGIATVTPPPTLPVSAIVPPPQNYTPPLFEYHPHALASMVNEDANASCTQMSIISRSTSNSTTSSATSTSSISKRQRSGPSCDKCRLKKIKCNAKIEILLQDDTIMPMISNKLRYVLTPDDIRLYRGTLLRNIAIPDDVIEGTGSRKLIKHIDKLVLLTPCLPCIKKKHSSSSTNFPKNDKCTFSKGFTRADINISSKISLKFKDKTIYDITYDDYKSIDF
Kind of test: PBM E-score (8-mer binding enrichment) (E-score (-0.5 to 0.5)); higher = stronger / more preferred TF binding; most listed sequences are background and not binding sites. The conditions noted are these: protein concentration: 200 nM; construct: GST-full length. The method in brief:
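Bound GST-tagged yeast transcription factors, applied at about 100-200 nM to double-stranded universal all-10-mer Agilent arrays, were detected with fluorescent anti-GST. Scans were normalised with masliner. A modified Wilcoxon-Mann-Whitney statistic, the E-score, was assigned to each ungapped eight-base word pooled with its reverse complement by the Universal PBM Analysis Suite.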
CCCTGACA: the “PBM E-score” value was -0.211.
As for CCCCGCGA, the figure is -0.0503.
In the case of ATAGCCCA, the “PBM E-score” value was -0.013.
The figure for CAATTTGA is 0.215; for TACAACGA it is 0.0849; for CGGAGGTC it is 0.235.
As for GAGGACAA, the figure is -0.223; as for CAAGTGTA, 0.00933.
On to ACAAGGAA, for which the “PBM E-score” value is 0.0178.
Consider CTACTATA, for which the “PBM E-score” value worked out at 0.281.
Turning to GCGCGCAA, the “PBM E-score” value was -0.131.
AAGTTGGT: the “PBM E-score” value came to 0.188.
As for ACAATCCC, the “PBM E-score” value stood at 0.12.
On to AGTACTCA, for which the “PBM E-score” value is 0.0483.
The figure for CCGGGATA is 0.113; for CGCCGTCC it is 0.00935.
Turning to GGGGGTTA, the “PBM E-score” value was -0.405.
As for GTACCGGA, the figure is 0.342; as for AGTCGTGA, -0.169; as for CGGGCGAC, -0.232.
Consider CTATGTGC, for which the “PBM E-score” value worked out at 0.00565.
The figure for ACTAGAGA is 0.0596; for AGCATGCG it is 0.0622; for CCGGTCTC it is 0.0394.
The figure for AGCAGAAC is -0.0462.
As for CGGGAATA, the figure is 0.194.
On to GGGGTTAC, for which the “PBM E-score” value was -0.00588.
Take CTTGGACC: the “PBM E-score” value is -0.338.
In the case of GACCATAC, the “PBM E-score” value was -0.00899.
As for GGCGACCC, the “PBM E-score” value is -0.172.
Take ACGTTGGC: the “PBM E-score” value is -0.126.
With CGTATTGC, the “PBM E-score” value is -0.0654.
For AAGTTCAG, the “PBM E-score” value is 0.0298.
The figure for GACTGGTA is -0.0269; for AGCACTTG it is -0.283; for AAACGCAG it is 0.00497.
With AGTTAAGA, the “PBM E-score” value amounted to 0.0414.
With CGCTGACC, the “PBM E-score” value was -0.136.
As for ACCTTCCC, the figure is -0.177; as for CTAGCACC, -0.00964.
GAGGTCGA: the “PBM E-score” value is -0.082.
The figure for GTGGATAA is 0.0944; for AGGCCTTG it is -0.23; for AAACAACG it is 0.167.
Consider CGGCCCGC, for which the “PBM E-score” value was -0.162.
As for CGGTAGAG, the “PBM E-score” value is -0.0633.
As for AGGCTGGC, the figure is -0.307; as for AGAAGCCT, 0.0166; as for AGAATAAC, 0.0729.
As to AAAATATC, the “PBM E-score” value worked out at 0.218.
Regarding CGGTACAA, the “PBM E-score” value was found to be 0.0752.
For AGTCCATG, the “PBM E-score” value was -0.00201.
As for GCTGATCC, the figure is -0.201.
For the sequence ACCTGAAC, the “PBM E-score” value is -0.106.
Turning to TCACCCAA, the “PBM E-score” value came out at 0.0728.
As to GCCGTCGA, the “PBM E-score” value is -0.19.
For ATTGCCGC, the “PBM E-score” value was -0.0411.
The figure for ATGGAGGG is -0.315; for GGCTCCCA it is -0.12; for CAACCACC it is -0.00156.
Take AAGATGGG: the “PBM E-score” value was -0.0695.
For the sequence CGTTCTAA, the “PBM E-score” value is 0.234.
As to GCAGCTAC, the “PBM E-score” value stood at 0.0107.
For the sequence CCCATGCG, the “PBM E-score” value is -0.249.
As for TATATCAA, the figure is 0.284; as for CGCCTAAA, -0.0163.
Take AGGTCAGC: the “PBM E-score” value stood at 0.0462.
For the sequence AAGATTTA, the “PBM E-score” value is 0.0965.
Take AGTACGTC: the “PBM E-score” value amounted to 0.0481.
In the case of ATAGATCG, the “PBM E-score” value was determined as 0.0745.
As for CACGCAGC, the “PBM E-score” value is -0.188.
AATACTTG: the “PBM E-score” value was -0.0125.
In the case of CTCTAAAA, the “PBM E-score” value came to 0.11.
As for CAAGTTAG, the “PBM E-score” value was 0.12.
As for CCGTTGTA, the figure is 0.191.
For the sequence GCGTGTAC, the “PBM E-score” value is -0.272.
As for CCACGCGC, the figure is -0.181; as for GAGTTTCA, 0.137.
On to GATTTCGC, for which the “PBM E-score” value came to 0.289.
The figure for ATTGATCA is -0.0122; for AGTGACCC it is -0.176.
As for CGCGATTA, the figure is 0.0599.
Turning to CCCAAACA, the “PBM E-score” value stood at 0.00961.
With AATATCGC, the “PBM E-score” value amounted to 0.15.
For the sequence CTTTTTCC, the “PBM E-score” value came out at 0.0159.
Turning to CCGCCACA, the “PBM E-score” value was -0.161.
Consider AGATATAT, for which the “PBM E-score” value worked out at 0.301.
Turning to GGTAGAAA, the “PBM E-score” value is -0.0374.
For the sequence GCATCTCC, the “PBM E-score” value is 0.0242.
The figure for CGCCAACC is -0.0697.
For the sequence AGCGAAAC, the “PBM E-score” value worked out at 0.222.
As to ACACTCTC, the “PBM E-score” value was 0.0313.
With AGGGTATC, the “PBM E-score” value was -0.104.
For AACACGTC, the “PBM E-score” value is -0.0271.
